Key:
Assay in all cases: BLI (ForteBIO Octet QKe), PDL1-Fc loaded, analyte 100 nM
Fusion 3 = biological target: T1, Fusion 3 (murine, UniProt P43431; P43432)
T1 construct: PDL1-1 nanobody fused with murine IL-12; two plasmids co-transfected 1:1; also called P1-mP35-8his + mP40

Fusion 1 = biological target: T2, Fusion 1 (murine, UniProt P43431; P43432)
T2 construct: PDL1-1 nanobody fused with murine IL-12; two plasmids co-transfected 1:1; also called mP35-P1-8his + mP40

Fusion 4 = biological target: T3, Fusion 4 (murine, UniProt P43431; P43432)
T3 construct: PDL1-1 nanobody fused with murine IL-12; two plasmids co-transfected 1:1; also called mP35-6his + P1-mP40

Fusion 2 = biological target: T4, Fusion 2 (murine, UniProt P43431; P43432)
T4 construct: PDL1-1 nanobody fused with murine IL-12; two plasmids co-transfected 1:1; also called mP35-6his + mP40-P1

Fusion 8 = biological target: T5, Fusion 8 (murine, UniProt P43431; P43432)
T5 construct: two PDL1-1 nanobodies fused with murine IL-12; also called mP35-P1-8his + P1-mP40

Fusion 5 = biological target: T6, Fusion 5 (murine, UniProt P43431; P43432)
T6 construct: two PDL1-1 nanobodies fused with murine IL-12; also called P1-mP35-P1-8his + mP40

Fusion 9 = biological target: T7, Fusion 9 (murine, UniProt P43431; P43432)
T7 construct: two PDL1-1 nanobodies fused with murine IL-12; also called P1-mP35-8his + P1-mP40

Kd (Fusion 3): 4.05 nM
koff (Fusion 3): 0.00375 s⁻¹
kon (Fusion 3): 924000 M⁻¹ s⁻¹
Kd (Fusion 1): 13.5 nM
koff (Fusion 1): 0.00646 s⁻¹
kon (Fusion 1): 477000 M⁻¹ s⁻¹
Kd (Fusion 4): 7.4 nM
koff (Fusion 4): 0.00478 s⁻¹
kon (Fusion 4): 647000 M⁻¹ s⁻¹
Kd (Fusion 2): 11.5 nM
koff (Fusion 2): 0.00735 s⁻¹
kon (Fusion 2): 639000 M⁻¹ s⁻¹
Kd (Fusion 8): 0.158 nM
koff (Fusion 8): 0.000146 s⁻¹
kon (Fusion 8): 925000 M⁻¹ s⁻¹
Kd (Fusion 5): 0.239 nM
koff (Fusion 5): 0.000151 s⁻¹
kon (Fusion 5): 631000 M⁻¹ s⁻¹
Kd (Fusion 9): 0.0589 nM
koff (Fusion 9): 5.71e-05 s⁻¹
kon (Fusion 9): 969000 M⁻¹ s⁻¹
B1: human PDL1-Fc fusion protein (Fc fusion)
chain: not shown
notes: also called human PDL1-Fc recombinant protein
